According to ChEMBL document CHEMBL4888484, “Replenishing the malaria drug discovery pipeline: Screening and hit evaluation of the MMV Hit Generation Library 1 (HGL1) against asexual blood stage Plasmodium falciparum ,using a nano luciferase reporter read-out” (2022):
Screen size: about 150,000 compounds; about 540 (0.36%) showed an effect of 50% or more. The list shows a part of the results.

system: Plasmodium falciparum; test: Primary screen in NF54 nanoGlo assay, in single point, at 2uM, 72h; a lower Z score goes with more inhibition; format: functional, Erythrocyte; conditions: timepoint 72 hour

Row | Compound | % Inhibition [%] | Z score
1 | CC(C)(C)C1CC(C(=O)Nc2cccc3c2C(=O)NC3)C1 (stereo not given) | 0 | 0.05
2 | Clc1ccccc1COc1ccccc1CNCc1ccc2c(c1)OCO2 | -12 | 1.45
3 | CCc1nnc(CNc2ccc(Cl)c(OC(F)F)c2)o1 | -2 | 0.21
4 | C[C@H]1C(=O)N(c2ccc(Cl)cc2Cl)CCN1C(=O)Nc1cccc(Cl)c1 | -3 | 0.37
5 | Cc1nnc(-c2cccc(NC(=O)[C@@H]3CCCCN3C(=O)C3CCOCC3)c2)s1 | -14 | 1.61
6 | O=C1CCCN1Cc1ncnn1-c1ccc2c(c1)OCCO2 | -5 | 0.75
7 | Cc1noc(C)c1NC(=O)N1CCS(=O)(=O)C(C)(C)C1 | 14 | -1.61
8 | Cc1cc(CS(=O)(=O)CC(=O)N2c3ccccc3C[C@@H]2C)on1 | 0 | -0.02
9 | Cc1cc(NC(=O)Nc2cccnn2)ccc1O | -7 | 1.19
10 | Cc1cccc(Cn2c(C(=O)NCc3ccco3)cc3cc(NC(=O)CCc4ccccc4)ccc32)c1 | -3 | 0.41
11 | Cc1cc(C(=O)NC2CCCC2)cs1 | 2 | -0.33
12 | Cc1ocnc1C(=O)N1c2ccccc2C[C@@H]1C | 17 | -2.17
13 | N#Cc1cccc(OC2CCN(C(=O)c3ccc4c(c3)CCC=C4)CC2)c1 | -1 | 0.2
14 | Cc1oc(C(C)C)nc1C(=O)NC[C@H]1CCCN(CC(F)(F)F)C1 | -5 | 0.59
15 | CNC(=O)Cc1noc(C[C@H](C)C(=O)c2ccc(Cl)cc2)n1 | -16 | 1.59
16 | O=C1CN(C(=O)CN2CCN(Cc3ccc4c(c3)CCO4)CC2)c2ccccc2N1 | -3 | 0.52
17 | Cc1noc(CNC(=O)C2CCN(C(=O)c3ccc4nsnc4c3)CC2)n1 | -15 | 2.25
18 | CC1CCC(C)N1C(C)C(=O)NCC(O)c1ccncc1 (stereo not given) | 6 | -0.51
19 | CC#CC(=O)NCC(C)(C)Oc1ccccc1 | -9 | 1.56
20 | COCC(O)CN(C)S(=O)(=O)N1CC(C)CC(C)C1 (stereo not given) | -9 | 1.12
21 | O=C(NCCOCCn1ccnc1)c1ccsc1 | -6 | 0.64
22 | Cc1ccc(CNC(=O)N2CCc3[nH]c(-c4ccccc4)nc3C2)cc1 | -11 | 1.61

Row | Compound | % Inhibition [%] | Z score
23 | CC(C)(C)OC(=O)N1Cc2sc(N)nc2C1(C)C | -20 | 3.25
24 | CC(=O)N1CCC[C@H](c2noc(-c3cnc4ccccc4n3)n2)C1 | -18 | 2.61
25 | Cc1ccc(-n2nc(N3CCCN(C(=O)c4ccc(F)c(Cl)c4)CC3)ccc2=O)cc1 | 5 | -0.54
26 | CC1CCN(S(=O)(=O)c2ccc(-c3noc(CN4C(=O)COc5ccccc54)n3)cc2)CC1 | 1 | -0.1
27 | O=C(CCn1cc(Br)ccc1=O)N1CCC[C@H](O)C1 | -5 | 0.69
28 | Cc1ncoc1C(=O)N1CCN(C(c2ccccc2)c2ccccc2)CC1 | -10 | 1.32
29 | COc1cc(-c2nnc3n2CCOC3)ccc1OCCC(C)C | 12 | -1.6
30 | c1ccc2c(c1)CN(C1CCOCC1)CCO2 | 3 | -0.38
31 | Cc1ccc(C)c(NS(=O)(=O)c2cc(C(=O)N3CCc4ccccc4C3)ccc2Cl)c1 | 0 | -0.04
32 | O=C(NCc1ccc(C2CC2)nc1)c1ccncc1 | -16 | 1.82
33 | Cc1occc1S(=O)(=O)Cc1ncc(-c2ccccc2)o1 | 19 | -2.19
34 | CN1CCCCC[C@H]1c1nc(CC(N)=O)nn1CCCO | 5 | -0.89
35 | C[C@H](NC(=O)CC1CCCCC1)C(=O)N1CCC(Cc2ncc[nH]2)CC1 | 3 | -0.55
36 | COc1ncnc(N(C)C)c1NC(=O)NCC(F)(F)C(F)F | -5 | 0.49
37 | Cc1ccc(CN2C[C@@H](O)C[C@H]2c2nnc3n2CCN(C(=O)C(C)C)C3)s1 | 1 | -0.11
38 | FC1(F)C[C@@H](COc2ccncc2)N(C2CCCCC2)C1 | -4 | 0.6
39 | C[C@]1(c2nc(C3CC3)no2)CCCN(C(=O)CCC2CCCC2)C1 | -4 | 0.45
40 | CCC(c1cccc(Br)c1)C(NC(=O)OC(C)(C)C)C(=O)O (stereo not given) | 23 | -2.93
41 | COc1ccc(C(=O)C[n+]2c3c(c(C(=O)O)c4ccccc42)CCCC3)cc1 | -13 | 1.72
42 | Cc1ccc(N2CC[C@](C)(O)[C@@H](O)C2)nn1 | -9 | 1.67
43 | CC[C@H]1CN(C(=O)NC2CCCCC2)CC[C@H]1CC(=O)N(CC)C(=O)NCCCN(C)C | 31 | -3.51
44 | CCC(C)NC(=O)C1C(c2ccc(NC(=O)c3ccccc3)cc2)OC(=O)N1Cc1ccccc1 (stereo not given) | -17 | 2.68

Row | Compound | % Inhibition [%] | Z score
45 | Cc1nn(C)c(C)c1CCC(=O)N(C)Cc1cnc(-c2ccccc2)s1 | 7 | -1.38
46 | CC(C)(C)CCS(=O)(=O)NC(=O)c1cnn(CC(F)(F)F)c1 | -14 | 2.67
47 | C[C@H]1CN(Cc2ccncc2)c2ccccc2NC1=O | -3 | 0.51
48 | Cc1noc(-c2ccc3nnc(CC(=O)NCc4cccc(Cl)c4)n3c2)n1 | -3 | 0.47
49 | Cc1nc(N)ncc1C(C)NCC1(C(O)C(C)C)CC1 (stereo not given) | -5 | 1
50 | CCc1onc(C)c1C(=O)N1CCN(C(=O)c2ccc(F)cc2)CC1 | 12 | -1.6
51 | O=C(Nc1ccc2c(c1)OCCO2)c1ccncc1 | -1 | 0.14
52 | OCc1cc2n(n1)CCN(Cc1cccc3nonc13)C2 | -21 | 1.86
53 | CC(C)CNC(=O)[C@H](C)NCCn1cccn1 | -2 | 0.23
54 | COc1ccnc(CNC(=O)N[C@H]2CCCC23CCCCC3)c1F | 1 | -0.15
55 | COc1ccc2[nH]c(-c3nnc(Cn4c(C)cc5ccccc54)s3)cc2c1 | 38 | -4.36
56 | CCCN1C=NS(=O)(=O)c2cc(C(=O)N3CCN(c4ccccc4OC)CC3)ccc21 | -6 | 0.96
57 | COc1ccc(CNC(C2CC2)C2CC2)cc1OC[C@@H](O)CN1CCCCCCC1 | -8 | 1.32
58 | Cc1cc(O)c2cccc(-c3ccc(CO)cc3)c2n1 | 0 | -0.01
59 | N#Cc1cc2n(n1)CCCN(C(=O)Cn1cc3ccccc3n1)C2 | -9 | 1.42
60 | CCN1C(=O)[C@@H](Cc2nc3ccccc3c(=O)n2-c2ccc(Cl)cc2)c2ccccc21 | -19 | 2.71
61 | CCN1C(=O)Cc2cc(NC(=O)c3cc(-c4ccccc4)on3)ccc21 | -14 | 2.01
62 | CC(C)c1cc(C(=O)N2C[C@@H]3[C@H]4CC[C@H](CC4)[C@@H]3C2)[nH]n1 | -8 | 1.4
63 | CCN(Cc1cn(C)nn1)C(=O)c1cccn1C | -4 | 0.56
64 | Cc1nn(CC(=O)Nc2ccc3c(c2)OCCO3)c(=O)n1C | 11 | -1.47
65 | Cc1ccc(C)c(N2CCN(S(=O)(=O)c3cc(C(=O)N4CCCCC4)cs3)CC2)c1 | -17 | 1.69
66 | COc1ccccc1CC(C)(C)NC(=O)CCc1ccco1 | -18 | 2.44

Row | Compound | % Inhibition [%] | Z score
67 | CCC(=O)N1CCN(C(=O)c2oc(CC)nc2C)C1 | -12 | 1.8
68 | CC(C)c1ccc(S(=O)(=O)N2CCC3(CCNC(=O)CC3)CC2)cc1 | -3 | 0.31
69 | C[C@H]1CN(S(=O)(=O)CCc2ccccc2)C(C)(C)CO1 | -3 | 0.34
70 | Cc1cccc(-c2noc(Cn3cccn3)n2)c1 | -6 | 0.68
71 | COc1cc(OC)cc(C(=O)Nc2ccc(N3CCN(C(=O)c4ccccc4Cl)CC3)nc2)c1 | -10 | 1.44
72 | CCn1c(CC2CCN(C(=O)c3c(C)cccc3OC)CC2)nn(C)c1=O | -8 | 0.98
73 | Nc1cc(C(F)(F)F)cc(C2CC2)n1 | -6 | 0.64
74 | O=C([C@H]1C[C@@H](F)CN1C(=O)Nc1cccc(Cl)c1)N1CCOCC1 | 9 | -1.63
75 | Cc1nn(-c2ccc(F)cc2)c2nc(CCC(C)C)nc(N3CCN(C(=O)COCc4ccccc4)CC3)c12 | 2 | -0.32
76 | CN(Cc1cccnc1)C(=O)[C@H]1CCN(c2cnn(Cc3ccccc3)c(=O)c2)C1 | -3 | 0.43
77 | COc1ccc(Cn2nc(CC(N)=O)nc2C[C@H]2CCCOC2)cc1 | -15 | 2.64
78 | O=C(CCC1CCN(Cc2ccc(CO)o2)CC1)Nc1ccccc1 | -8 | 1.2
79 | CCCCn1c(=O)[nH]c2c(C(=O)N3CCN(c4cccc(C)c4)CC3)snc2c1=O | -17 | 2.8
80 | Cc1c(F)cccc1NC(=O)NC(C)(C)CCS(C)(=O)=O | -3 | 0.33
81 | C[C@@H](CCn1cncn1)NCCc1cc(Cl)cc(Cl)c1 | 4 | -0.49
82 | Cc1ccnc2c1NC(=O)CN2C(=O)c1cncc(F)c1 | -4 | 0.68
83 | COc1c[nH]c(C(=O)N(C)Cc2ccccc2)cc1=O | -2 | 0.21
84 | O=C1NCCCC[C@@H]1Cc1nc(-c2ccccc2OC(F)F)no1 | -3 | 0.45
85 | COc1cccc(CNC(=O)N(C)Cc2cc(F)c(F)c(F)c2)n1 | 33 | -3.71
